Measured values published in the RNAGym collection of RNA variant scans (doi:10.1073/pnas.2313332121).
This sample is rich in variants without activity.

B1: TPR 5TU (parent)
chain: GGAUCUUCUCGAUCUAACAAAAAAGACAAAUCUGCCACAAAGCUUGAGAGCAUCUUCGGAUGCAGAGGCGGCAGCCUUCGGUGGCGCGAUAGCGCCAACGUUCUCAACUAUGACACGCAAAACGCGUGCUCCGUUGAAUGGAGUUUAUCAUG

Variants of: B1
Test: polymerase ribozyme fitness, log enrichment relative to wild type (log ratio); higher = more active; in vitro selection for triplet polymerase activity
Method in brief: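 For each subunit of a heterodimeric triplet polymerase ribozyme, a mutant library was built by PCR and transcribed, then taken through a single in vitro selection round in triplicate. Selection involved annealing to a biotinylated primer, the partner subunit and triplets, incubation frozen at −7 °C, gel excision of extended constructs, capture on streptavidin beads and RT-PCR. Genotypes were retained after Illumina sequencing of inputs and outputs only with ≥10 input reads and ≥1 read in each output. Fitness is defined as the logarithm of a genotype's enrichment relative to wild-type enrichment, using inverse-variance-weighted averages across replicates, with the logarithm taken to base 2.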

| Variant | polymerase ribozyme fitness (log ratio) |
| --- | --- |
| GGAUCUUCUCGAUCUAACAAAAAAGAAAAAUCUGCCACAAAGCUUGAGCGCAUCUUCGGAUGCAGAGCCGGCAGCCUUAGAUGGCGAGAUAGCGCCAACGUUCUUAACUAUGACACGCAAAACGCGUGCUCCGUUGAAUGGAGUUUAUGAUG | ≤ -4.2 |
| GGAUCUUCUCGAUCUAACAAAAAAGUCAAAUCUGCCACAAAGCUAGAGAGCAUCUUCGGAUGCAGAGGCGGCAGCCUUCGGUGGGGCGAUAGCGCCAACGUUCUCAACUAUGACACGCAAAACGCGUGCUCCGUUGAAUGGAGUUUAUCAGG | ≤ -4.2 |
| GGAUCUUCUCGAUCUAACAAAAAAGAAAAAUCUGCCACAAAGCUUGAGCGCAUCUUCGGAUGCAGAGGCGGCAGCCUUCGGUGGCGCGAGAGCGCCAACGUUCUCAACUAUGACACGCAAAACGCGUGCUCCGUUGAAUGGAGUCUAUCAUG | ≤ -4.2 |
| GGAUCUUCUCGAUCUAACAAAAAAGUCAAAUCUGCCACAAAGCUAGAGAGCAUCGUCGGAUGCAGAGGCGGCAGCCUUCGGUGCCGCGAUGGCGCCAACGUUCUCAACUAUGACACGCAAAACGCGUGCUCCGUUGAAUGGAGUUUAUCCUG | ≤ -4.2 |
| GGAUCUUCUCGAUCUAACAAAAAAGUCAAAUCUGCCACAAAGCUUGAGAGCAUCUUCGGAUGCAGAGGCGGCAGCCUUCGGAGGUGCGAUAGCGCCAACGUUCUCAACUAUUACACGCAAAACGCGUGCUCCGUUGAAUGGAGUUUAUCAUG | ≤ -4.2 |
| GGAUCUUCUCGAUCUAACAAAAAAGAAAGAUCUGCCACAAAGCUUGAGAGCAUCUUAGGAUGCAGAGGCGGCAGCCUUCGGUCGCGCGAUAGCGCCAACGUUCUCAACUAUGACACGCAAAACGCGUGCUGCGUUGAAUGGAGUUUAUCAUG | ≤ -4.2 |
| GGAUCUUCUCGAUCUAACAAAAAAGUCAAAUCUGCCACAAAGCUUGAGAGCAACUUCGGAUGCAGAGGCGGCAGCAUUCGGUGGCGCGCUAACGCCAACGUUCUCAACUAUGACACGCAAAACGCUUGCUCGGUUGAAUGGAGUUUAUCAUG | ≤ -4.2 |
| GGAUCUUCUCGAUCUAACAAAAAAGAAAAAUCUGCCACAAAGCUUGUGAGCAUCUACGGAUGGAGAGGCGGCAGCCUUCAGUGGCGCGACAGCGCGAACGUUCUCAACUAUGACACGCAAAACGCGUGCUCCGUUGAAUGGAGUUGAUCAUG | ≤ -4.2 |
| GGAUCUUCUCGAUCUAACAAAAAAGUCAAAUCUGCCACAAAGCUUGAGAGCAUCUUCGGAAGCAGAGGCGGCAGCCUUCGGUGGCGCGAGAGCGCCAAUGUUCUCAACUAUGACACGCAAAACUCGUGCUCCGUUGAAUGGAGUUUAUCAUG | ≤ -4.2 |
| GGAUCUUCUCGAUCUAACAAAAAAGAAAAAUCUGCCACAUAGCUUGAGAGCAUCUUCGGAUGCAGAGGCGGCAGCCUUCGGUUGCGGGAUAGCGCCAACGUUCUCAACUAUGACACGCAAAACGCGUGCUCCGUUGAUUGGAGUUUAUCAUG | ≤ -4.2 |
| GGAUCUUCUCGAUCUAACAAAAAAGAAGAAUCUGCCACAAAGAUUGAGAGCAUCUUCCGAUGCAGAGGCGGCAGCCUUCGGUGGCGCGAUAGCGUCAACGUUCUGAACUAUGACACGCAAAACGCGUGCUCCGUUGAAUGGAGUUUAUCAUG | ≤ -4.2 |
| GGAUCUUCUCGAUCUAACAAAAAAGAAACAUCUGCCACAAAGCUUGAGAGCUUCUUCGUAUGCAGAGGCGGCAGCCUUCGGUGGCGCGAUAGGGCCAACGUUCUCAACUAUGACAUGCAAAACGCGUGCUCCGUUGAAUGGAGUUUAUCAUG | ≤ -4.2 |
| GGAUCUUCUCGAUCUAACAAAAAAGUCAAAUCUGCCACAAAGCUUGAGAGCAUCUUCGGAUGCAGAGGCGGCAGCCUUCGGUGGCGCGAUAGCGCCAACGUUCUCAACUAUGACACGCAAAACGCGUGCUCCGAUGAAUGGAGUUUAUCAUG | -3.96 |
| GGAUCUUCUCGAUCUAACAAAAAAGUCAAAUCUGCCACAAAGCUUGAGAGCAUCUACGGAAGCAGAGGGGGCAGCCUUCGGUGGCGCGAUAGCACAAACGUUCUCAACUAUGACACGCAAAACGCGUGCUCCGUUGAAUGGAGUUUAUCUUG | ≤ -4.2 |
| GGAUCUUCUCGAUCUAACAAAAAAGAAAAAUCUGCCACAAAGCUUGAGCGCAUCUUCGGAUGCAGAGGCGGCAGCCUUCGGUGGCGCGAUAUCGCCAACGUUCUCAACUAUGUCACGCAAAACGCGUGCUCCGUUGAAUGGAAUUUAUCAUG | ≤ -4.2 |
| GGAUCUUCUCGAUCUAACAAAAAAGAAAUAUCUGCCACAAUGCUUGAGAGCAUCUUCGGAUGCAGAGGCGGCAGCCUUCGGUGGCGCGAUAGCGCCGACGUUCUCAACUAUGACACGCAAUACGCGUGCUCCGUUGAAUGGAGUUUAUCAUG | ≤ -4.2 |
| GGAUCUUCUCGAUCUAACAAAAAAGUCAAAUCUGCCACAAAGCUUGAGAGCAUCAUCGGAUGCAGAGGCGGCAGCCUUAGGUGGCGCGAAAGCGCCAACGUUCUCAACUAUGACACGCAAAACGCGGGCUCCGUUGAAUGGAGUUAAUCAUG | ≤ -4.2 |
| GGAUCUUCUCGAUCUAACAAAAAAGAAAAAUCUGCCACAGAGCUUGAGAGCAUCAUCGGAUGCAGAGGCGGCAGCCUUCGGUCGCGCGAUAGCGCCAACGUUCUCAACUAUGACACGCAAAACGCGUGCUCCGUUGAAUGGAGUUUAUCAUG | ≤ -4.2 |
| GGAUCUUCUCGAUCUAACAAAAAAGUCAAAUCUGCCACAAAGCUUGAGAGCAUCUACGGAUGCAGAGGCGGCAGCCUUCGGUGGCGCGAUAGCGCCAACGGUCUCAACUAUGACGCGCAAAACGCGUGCUCCGUUGAAUGGAGUUUAUCAUG | -3.42 |

| Variant | polymerase ribozyme fitness (log ratio) |
| --- | --- |
| GGAUCUUCUCGAUCUAACAAAAAAGUCAAAUCUGCCACAAAGCUUGAGAGCAACUUCGGAUGCAGAGGCGGCAGCCUUCGGUGGCGCGAUUGCGCCAACGUUCACAACUAUGACACGCAAAACGCGUGCUCCGUUGAAUGGAGUUUAUCAUG | ≤ -4.2 |
| GGAUCUUCUCGAUCUAACAAAAAAGAAAUAUCUGCCACAAAGCUUGAGAGCAUCUUCGGAUGCAGAGGCGGCAGCCUUCGGUGGCGCGAUGGCGCCAACGUUCUCAACUAUGACACGUAAAACGCGUGCUCCGUGGAAUGGAGUUUAUCAUG | ≤ -4.2 |
| GGAUCUUCUCGAUCUAACAAAAAAGAAAAAUCUGCCACAAAGCUUGAGGGCAUCUUCGGAUGCAGAGGCGGCAGCCUUCAGUGGGCCGAUAGCGCCAACGUUCUCAACUAUGACACGCAAAACGCGUGCUCCGUUGCAUGGAGUUUAUGAUG | ≤ -4.2 |
| GGAUCUUCUCGAUCUAACAAAAAAGAAAAAUCUGCCACAAAGCUUGAGCGCAGCUUCGGAUGCAGAGGCGGCGGCCUUCGGUGGCGCGAUAGCGACAACGUUCUCAACUAUGAGACGCAAAACGCGUGCUCCGUUGAAUGGAGUUUAUCAUG | ≤ -4.2 |
| GGAUCUUCUCGAUCUAACAAAAAAGUCAAAUCUGCCACAAAGCUUGAGAGCAUCUUCGGAUGCAGAGGCGGCAGCCUUCGGAGGCGCGAUAGCGCCAACGUUCUCCACUAUGACACGCAAAACGCGUGCUCCGUUGAAUGGAGUUUAUCAUG | -3.93 |
| GGAUCUUCUCGAUCUAACAAAAAAGAAAAAUCUGCCACAAAGCUUGAGCGCAUCUUCGCAUGCAGAGGCGGCACCCUUCGGUGGCGCGAUAGCGCCAACGUUCUCAACUAUGACACGCAAAACGCGUGCUCCGUUUAAUGGAGUUUAUCAUG | ≤ -4.2 |
| GGAUCUUCUCGAUCUAACAAAAAAGAAGAAUCUGCCACACUGCUUGAGAGCAUCUUCGGAUGCAGAGGCGGCAGCCUUCGGUGGCGCGAUAGCGCCAACGUUCUCAACUAUGACACGCAAAACGCGUGCUCCGUUGAAUGGAGUUUACCAUG | ≤ -4.2 |
| GGAUCUUCUCGAUCUAACAAAAAAGAAUAAUCUGCCAUAAAGCUUGAGAUCAUCUUCGGAUGCAGAGGCGGCAGCCUUCGGUGGCGAGAUAGCGCCUACUUUGUCAACUAUGACACGCAAAACGCGUGCUCCGUUGAAUGGAGCUUAUCAUG | ≤ -4.2 |
| GGAUCUUCUCGAUCUAACAAAAAAGAAUAAUCUGCCACAAAGCUUGAGAGCAGCUUCGGAUGCAGAGGCGGCAGCCUUCGAUGGCGUGAUAGCGCCAACGUUCUCAACUAUGACACGCGAAACGCGUGCUCCGUUGAAUAGGGUUUAUCAUG | ≤ -4.2 |
| GGAUCUUCUCGAUCUAACAAAAAAGAAAACUCUGCCACAAAGCUUGAGAGCAUCUUCGGAUGCAGAGGCGGCAGCCUUCGGUGGCGCGGUAACGCCAACGUUCUUAACUAUGACACGCAAAACGCGUGCUCCGUUGAAUUGAGUUUAUCAUG | -3.96 |
| GGAUCUUCUCGAUCUAACAAAAAAGUCAAAUCUGCCACAAAGCUUGAGAGCAACUUCGGAUGCAGAGGCGGCAGCCUUCGGUGGCGCGAUAGCGCCAACGUUCUCAACUAUGACACGCAAAACGCGUGCUCCGUUGAAUGGAGUUUAUCAUG | -1.58 |
| GGAUCUUCUCGAUCUAACAAAAAAGUCAAAUCUGCCACAAAGCUUGAGAGCAUCUACGGAUGCAGAGGCGGCAGCCUUCGGUGGCGCGAUAGCGCCAGCGUUCUCAACUAUGACACGCAAAACGCGUGCUCCGUUGAAUGGAGUUUAUCAUG | -1.83 |
| GGAUCUUCUCGAUCUAACAAAAAAGAAAAAUCUGCCACAAAGCUUGAGAGCGUCUGCGGAUGCAGAGGCGGCAGCCUUCGGUGGCGCGAUAGAGCCAACGUUCUCAACUAUGACACGCAAAAAGCGUGCUCCGUUGAAUGGAGUUUAUCAUG | ≤ -4.2 |
| GGAUCUUCUCGAUCUAACAAAAAAGAAAAAUCUGCCACAAAGCUUGAGAGCUUCUUAGGAUGCAGAGGCGGCGGCCUUCGGUGGCACGAUAGCGCCAACGUUCUCAACUAUGACACGCAAAACGCGUGCUCCGUUGAAUGGAGUUUAUCAUG | ≤ -4.2 |
| GGAUCUUCUCGAUCUAACAAAAAAGUCAAAUCUGCCACAAAGCUUGAGAGCAUCUACGGAUGCAGAGGCGGCAGCCUUCGGUGGCGCGAUAGUGCCAACGUUCUCAACUAUGACACGCAAAACGCGUGCUCCGUUGAAUGGAGUUUAUCAUG | -3.4 |
| GGAUCUUCUCGAUCUAACAAAAAAGAAAGAUCGGACACAAAGCUUGAGAGCAUCUUCGGGUGCAGAGGCGGCAGCCUUCGGUGGCGCGAUAGGGCCGACGUUCUCAACUAUGACACGCAUAACGCGUGCUCCUGUGAAUGGAGUUUAUCAUG | ≤ -4.2 |
| GGAUCUUCUCGAUCUAACAAAAAAGUCAAAUCUGCCACAAAGCUUGAGAGCAUCUGCGGAUGCAGAGGCGGCAGCCUUCGGUGGCGCGAUACCGCCAACGUUCUCAACUAUGGCACGCAAAACGCGUGCUCCGUUGAAUGGAGUUUAUCAUG | ≤ -4.2 |
| GGAUCUUCUCGAUCUAACAAAAAAGUCAAAUCUGCCACAAAGCUUGAGAGCAUCUUCGGAUGCAGAGGCGGCAGCCUUCGGUGGCGCGAUAGCGCCAACGUUCUCAACUAUGACACGCAAAACGCGUGCUCCGUUGAAUGGAGUUUAUCACG | ≤ -4.2 |
| GGAUCUUCUCGAUCUAACAAAAAAGAAAAAUCUGCCCCAAAGUUUGAGAGCAUCUUCGGAUGCAGAGGCAGCAGCCUUCGGUGGCGAGAUAGCGCCAACGUUCUCAACUAUGACACGCAAAACGCGUGCUCCGUUGAAUGGAGUUUAUCAUG | ≤ -4.2 |
